From PubChem BioAssay (Tox21)
Where “and” joins values, the source holds several entries; their conditions need not be identical. Equal values may be shown once. This list was built around the results that the source calls inconclusive (neither active nor inactive); the mix of calls is not that of the screen. A potency beside an inconclusive call is a rough fit, not a confirmed value. Calls of active or inactive are those of the source. Calls follow the shape of the dose curve; as a rule, active = well fitted inhibition curve with a large enough effect in the repeat runs; inconclusive = weak or mixed curves; inactive = flat fitted curve, though single readings scatter.

Biological target: Voltage-gated inwardly rectifying potassium channel KCNH2 (Homo sapiens) (UniProt Q12809)
Assay: Human Ether-a-go-go-Related Gene (hERG) channel small molecule antagonists: fluorescence cell-based qHTS assay (AID 1671200); also: nearly all actives have a fitted effect of over 50% in size
Conditions: hERG-U2OS cells, FluxOR thallium flux fluorescence; series mostly up to 76.8 µM
How it was run: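 hERG-U2OS cells plated overnight at 37 C, loaded with FluxOR II dye 1 h at RT in dark; after 10 min, thallium stimulus added. Fluorescence (480/540 nm) read kinetically for 2 min at 1 s intervals.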
Potency is read from the fitted curve at half-maximal effect; tags tell the direction and shape of the fitted curve.

UniProt Q12809, sequence (Q12809 whole entry, looked up): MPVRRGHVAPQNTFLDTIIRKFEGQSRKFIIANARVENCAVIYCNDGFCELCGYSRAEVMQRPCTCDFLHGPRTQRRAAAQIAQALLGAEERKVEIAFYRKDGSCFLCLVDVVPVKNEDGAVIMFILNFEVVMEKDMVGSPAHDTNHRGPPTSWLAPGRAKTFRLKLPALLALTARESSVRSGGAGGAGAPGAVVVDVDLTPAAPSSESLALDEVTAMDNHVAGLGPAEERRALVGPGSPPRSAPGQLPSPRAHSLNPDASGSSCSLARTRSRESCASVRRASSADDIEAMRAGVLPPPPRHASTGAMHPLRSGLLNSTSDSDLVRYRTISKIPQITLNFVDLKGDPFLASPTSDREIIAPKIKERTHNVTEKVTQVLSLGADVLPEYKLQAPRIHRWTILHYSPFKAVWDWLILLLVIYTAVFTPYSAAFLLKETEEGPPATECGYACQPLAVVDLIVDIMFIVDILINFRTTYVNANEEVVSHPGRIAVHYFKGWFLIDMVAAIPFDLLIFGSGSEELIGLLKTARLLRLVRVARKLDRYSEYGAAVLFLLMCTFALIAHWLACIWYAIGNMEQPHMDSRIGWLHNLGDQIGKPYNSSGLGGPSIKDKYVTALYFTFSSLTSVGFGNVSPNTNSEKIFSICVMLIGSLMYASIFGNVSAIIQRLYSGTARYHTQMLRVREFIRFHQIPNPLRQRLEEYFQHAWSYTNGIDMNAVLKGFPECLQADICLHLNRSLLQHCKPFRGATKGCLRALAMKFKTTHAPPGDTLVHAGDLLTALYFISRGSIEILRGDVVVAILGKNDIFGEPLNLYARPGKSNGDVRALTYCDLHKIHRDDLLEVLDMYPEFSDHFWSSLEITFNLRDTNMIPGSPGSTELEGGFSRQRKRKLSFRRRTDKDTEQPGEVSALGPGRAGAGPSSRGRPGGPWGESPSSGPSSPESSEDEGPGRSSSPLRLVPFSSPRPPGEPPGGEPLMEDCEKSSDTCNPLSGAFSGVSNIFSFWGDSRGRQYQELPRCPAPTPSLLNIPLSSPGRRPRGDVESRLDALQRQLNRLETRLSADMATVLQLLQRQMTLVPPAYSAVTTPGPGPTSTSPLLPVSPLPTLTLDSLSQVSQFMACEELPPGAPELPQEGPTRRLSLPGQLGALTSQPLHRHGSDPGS

SMILES | Potency
CCCCCCCCc1ccc(O)cc1 | inconclusive: 30.2 µM [inhibitor]
C[C@@H]1CC[C@@]2(OC1)O[C@H]1[C@@H](O)[C@H]3[C@@H]4CC[C@H]5C[C@@H](O[C@@H]6O[C@H](CO)[C@H](O[C@@H]7O[C@H](CO)[C@@H](O)[C@H](O[C@@H]8OC[C@@H](O)[C@H](O)[C@H]8O)[C@H]7O[C@@H]7O[C@H](CO)[C@@H](O)[C@H](O[C@@H]8O[C@H](CO)[C@@H](O)[C@H](O)[C@H]8O)[C@H]7O)[C@H](O)[C@H]6O)[C@H](O)C[C@]5(C)[C@H]4CC[C@]3(C)[C@H]1[C@@H]2C | active: 11.6 µM
[Cl][Hg][c]1ccccc1 | active: 17.4 µM
CCCCCCCCCc1ccc(O)cc1 | inconclusive: 30.9 µM [inhibitor]
CCCSP(=O)(OCC)Oc1ccc(Br)cc1Cl (stereo not drawn) | inconclusive: 23.8 µM [inhibitor]
CCCOCC(=Nc1ccc(Cl)cc1C(F)(F)F)n1ccnc1 | active: 48.9 µM
C[C@]12CCC(=O)C[C@@H]1CC[C@@H]1[C@@H]2CC[C@]2(C)[C@@H](O)CC[C@@H]12 | inconclusive: 27.6 µM [inhibitor, partial curve, poor fit]
CC(C)Oc1cc(-n2nc(C(C)(C)C)oc2=O)c(Cl)cc1Cl | inconclusive: 43 µM [inhibitor, partial curve] and inconclusive: 49 µM [inhibitor, partial curve]
CC(C)CC(C)Nc1ccc(Nc2ccccc2)cc1 (stereo not drawn) | active: 24.1 µM
O=C(CCl)c1ccc(Cl)cc1Cl | inconclusive: 3.01 µM [inhibitor, full curve]
C#CCOS(=O)OC1CCCCC1Oc1ccc(C(C)(C)C)cc1 (stereo not drawn) | inconclusive: 17.4 µM [inhibitor, full curve] and inconclusive: 27.5 µM [inhibitor, partial curve]
CC(=O)[O][Pb]([c]1ccccc1)([c]1ccccc1)[c]1ccccc1 | inconclusive: 1.74 µM [inhibitor, full curve]
O=P(Oc1ccccc1)(Oc1ccccc1)Oc1ccccc1 | active: 21.8 µM and active: 38.9 µM
CCCN(CCC)c1c([N+](=O)[O-])cc(S(N)(=O)=O)cc1[N+](=O)[O-] | inconclusive: 46.6 µM [inhibitor]
CN(C)C(=S)SSC(=S)N(C)C | inconclusive: 23.9 µM [inhibitor]
CCOC(=O)CC(SP(=S)(OC)OC)C(=O)OCC (stereo not drawn) | inactive
CCC(C)(C)c1ccc(O)c(C(C)(C)CC)c1 | inconclusive: 15.5 µM [inhibitor, full curve]
O=S(=O)(Oc1ccc(Cl)cc1)c1ccc(Cl)cc1 | inconclusive: 39.4 µM [inhibitor, partial curve] and active: 24.5 µM
CCOP(=S)(OCC)OC(Cl)C(Cl)(Cl)Cl (stereo not drawn) | inconclusive: 30.9 µM [inhibitor, partial curve]
CC(C)CC(C)(c1ccc(O)cc1)c1ccc(O)cc1 | inconclusive: 55.1 µM [inhibitor, single point] and inconclusive: 43.6 µM [inhibitor, partial curve, poor fit]
O=C(N[C@H]1N=C(c2ccccc2F)c2cccc3c2N(CC3)C1=O)c1cc2ccccc2[nH]1 | active: 7.56 µM
Cc1ccc(OP(=O)(Oc2ccc(C)cc2)Oc2ccc(C)cc2)cc1 | inconclusive: 4.89 µM [inhibitor, full curve] and inconclusive: 19.5 µM [inhibitor, partial curve]
c1ccc2c(c1)Sc1ccccc1N2CC1CN2CCC1CC2 (stereo not drawn) | active: 5.35 µM
Cc1ccc(N(SC(F)(Cl)Cl)S(=O)(=O)N(C)C)cc1 | active: 21.9 µM
O=[N+]([O-])/C=C/c1ccccc1 | inconclusive: 49.8 µM [inhibitor, partial curve] and inconclusive: 21.9 µM [inhibitor]
CC(=O)[O][Hg][c]1ccccc1 | active: 13.7 µM and active: 13.8 µM and inconclusive: 16.9 µM [inhibitor, partial curve]
COc1ccc(/C(=C/C(=O)N2CCOCC2)c2ccc(Cl)cc2)cc1OC | active: 12.3 µM
CCCCCCCCn1sccc1=O | inconclusive: 36.3 µM [inhibitor, partial curve]
